In PubChem BioAssay AID1645887 (National Center for Advancing Translational Sciences (NCATS), 2021):
Several values for one entry are separate records, joined by “and”; a condition that tells them apart may be missing. Equal entries are not always repeated. The campaign covered roughly 16,000 compounds. About 40 (0.2%) were called active. About 1% were inconclusive and are not listed. Calls come from the whole dose curve; as a rule, active = well fitted activation curve with a large enough effect; inconclusive = small, poorly fitted or top-dose-only effect, or another doubt; inactive = no such curve, though single readings can be large or run the other way. This is one part of the list.

These molecules were tested against Rap guanine nucleotide exchange factor 4 (Homo sapiens) (UniProt Q8WZA2) (assay: Validation qHTS for agonist of cAMP-regulated guanine nucleotide exchange factor 4 (EPAC2)). Conditions: EPAC2 Rap1B BODIPY-GDP exchange, fluorescence; activation: stronger effect = higher value.
Chain of UniProt Q8WZA2 (Q8WZA2 whole entry, looked up): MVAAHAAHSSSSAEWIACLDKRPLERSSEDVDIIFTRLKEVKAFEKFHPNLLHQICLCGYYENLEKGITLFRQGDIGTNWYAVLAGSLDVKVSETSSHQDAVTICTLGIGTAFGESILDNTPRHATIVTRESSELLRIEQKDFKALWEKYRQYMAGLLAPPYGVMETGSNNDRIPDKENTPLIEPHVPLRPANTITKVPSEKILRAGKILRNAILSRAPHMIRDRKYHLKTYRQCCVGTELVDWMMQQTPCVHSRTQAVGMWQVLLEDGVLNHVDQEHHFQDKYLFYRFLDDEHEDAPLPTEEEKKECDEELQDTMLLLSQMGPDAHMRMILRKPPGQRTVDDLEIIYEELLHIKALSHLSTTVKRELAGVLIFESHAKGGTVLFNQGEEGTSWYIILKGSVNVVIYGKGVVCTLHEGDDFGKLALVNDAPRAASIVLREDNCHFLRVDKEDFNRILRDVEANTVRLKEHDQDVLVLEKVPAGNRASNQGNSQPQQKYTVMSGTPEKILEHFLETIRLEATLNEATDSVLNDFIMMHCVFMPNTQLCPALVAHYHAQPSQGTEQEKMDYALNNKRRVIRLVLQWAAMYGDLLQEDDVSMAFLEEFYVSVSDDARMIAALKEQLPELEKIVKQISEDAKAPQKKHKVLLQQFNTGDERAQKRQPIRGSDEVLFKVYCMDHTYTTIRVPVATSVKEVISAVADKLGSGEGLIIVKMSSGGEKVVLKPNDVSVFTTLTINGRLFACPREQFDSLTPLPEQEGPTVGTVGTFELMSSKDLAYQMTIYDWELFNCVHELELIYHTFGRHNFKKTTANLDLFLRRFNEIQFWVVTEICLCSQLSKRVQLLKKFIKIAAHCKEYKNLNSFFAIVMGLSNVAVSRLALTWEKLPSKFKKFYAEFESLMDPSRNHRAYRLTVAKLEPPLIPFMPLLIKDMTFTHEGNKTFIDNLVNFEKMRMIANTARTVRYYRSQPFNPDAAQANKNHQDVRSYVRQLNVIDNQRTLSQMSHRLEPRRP
Method in brief: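 Fluorescent exchange assay: 100 nM EPAC2 with 250 nM RAP1B-BODIPY-GDP and 50 uM GDP; compound added, 5 min at room temperature, then read (ex 480/em 540 nm) every 5 min for 30 min. Normalized to 6.5 mM cAMP agonist control.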
% is set by controls: 0 for no effect and ±100 for the full control effect.
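Note: exchange makes BODIPY-GDP fluorescence drop when released from Rap1B; series mostly up to about 150 µM.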

activation, inactive:
Cc1ccccc1-c1cc(N2CCN(C)CC2)ncn1 -21.4%
Cn1cc(NC(=O)c2cc(NC(=O)c3cc(NC=O)cn3C)cn2C)cc1C(=O)NCCC(=N)N -12.3%
CC(O)[C@H]1CC[C@H]2[C@@H]3CC[C@@H]4C[C@@H](O)CC[C@]4(C)[C@H]3CC[C@]12C (stereo partly drawn) -1.77%
CC(=O)N1CCN(c2ccc(OC[C@H]3CO[C@](Cn4ccnc4)(c4ccc(Cl)cc4Cl)O3)cc2)CC1 -24.4% and -2.64% and -29.4%
O=C(c1ccncc1)N1CCC2(CCCN(Cc3ccccc3)C2)CC1 -2.92%
CS(=O)(=O)N1CCC2(CC1)CN(c1ccccc1)C2 -1.26%
CC(=O)[C@H]1CC[C@H]2[C@@H]3CCC4=CC(=O)CC[C@]4(C)[C@H]3CC[C@]12C -3.73% [middle of 4 runs]
CC(=O)OC1CC[C@@]2(C)C3CC[C@@]4(C)C(CC5O[C@@]6(CCC(C)CO6)C(C)C54)C3CC[C@@H]2C1 (stereo partly drawn) 5.05%
CCC1(C2CCN(Cc3cc4ccccc4o3)CC2)NC(=O)N(CC2COc3ccccc3O2)C1=O (stereo not drawn) 3.7%
Cc1cnc(CNc2ncncc2-c2ccccc2C)cn1 -1.64%
CN(C)c1ncc2nc(-c3ccc(F)cc3)c(=O)n(C[C@H]3CCCO3)c2n1 0.996%
C=CCN1C(=O)C(CC(C)C)NC1=S (stereo not drawn) 7.71% and -14.7%
Cc1ccc(C(=O)Nc2cccc(-c3nc(CNC(=O)c4ccccc4-n4cccn4)c(C)o3)c2)s1 -28.5%
FC(F)(F)c1ccccc1-c1nc(NCc2cccnc2)c2ccccc2n1 1.34%
Cc1nc2sccn2c1CN1CCOc2ccc(CN3CCN(c4ccc(F)cc4)CC3)cc2C1 -1.73%
COc1cc(=O)n2c(c1C(=O)N(C)Cc1ccsc1)CCN(Cc1cnn(C)c1C)CC2 4.94%
C[C@@H](CN=[N+]=[N-])CN1CC[C@H](NC(=O)OCc2ccccc2)CCC1=O -25%
CCc1nc2cc(C(=O)N(C)CC3COCCO3)cc(NC(=O)c3ccccc3OC)c2n1C (stereo not drawn) -7.4%
O=S(=O)(c1ccccc1)N1CCC2(CCN(c3ncccn3)CC2)CC1 -3.62%
OC(CN1CCC(Cc2ccc(F)cc2)CC1)c1ccc(Cl)cc1 (stereo not drawn) -6.15% and -25.9%
CC(C)NC[C@@H](O)c1ccc(O)c(O)c1 -3.05%
CCOC(=O)[C@@]12C[C@@H]1/C(=N/O)c1ccccc1O2 -9.63%
NC(Cc1cc(I)c(Oc2cc(I)c(O)c(I)c2)c(I)c1)C(=O)O (stereo not drawn) 3.34%
CN(CCO)C(=O)c1cn(C2CCN(Cc3ccc4ccccc4c3)CC2)nn1 -10.4%
CCCCCCCC(=O)OC[C@H](CO)OC(=O)CCCCCCC -6.68%
O=C(/C=C/c1ccccc1)OC1CC(O)C2(O)C=CO[C@@H](OC3OC(CO)C(O)C(O)C3O)C12 (stereo partly drawn) -6.7%
CN1CCc2cccc3c2[C@@H]1Cc1ccc(O)c(O)c1-3 3.54%
CC(O)C(=O)O (stereo not drawn) 7.9%
CCC1CN(CC(=O)N(C)Cc2nc3ccccc3[nH]2)Cc2cc(OC)ccc2O1 (stereo not drawn) -13.2%
N#Cc1cccc(NC(=O)N2CCCC3(CCN(C(=O)c4csnn4)CC3)C2)c1 -2.59%
NC(=S)N/N=C/c1cccnc1 -19.8%
O=C(O)CCCCC(=O)O -1.74%
C[C@H]1OC(=O)CC[C@@H]2[C@]1(C)CCC1[C@@]2(C)CC[C@@]2(C)C3CC(C)(C)CC[C@]3(CO)CC[C@]12C (stereo partly drawn) -17.4%
CN1CCN(c2ncc3nc(-c4cn(C)c5ccccc45)c(=O)n(Cc4cccs4)c3n2)CC1 -4.2%
Cc1ccc(CN2[C@H](C)[C@H](c3ccccc3)OCCS2(=O)=O)cc1 -12.5%
C=CCCCCCCCCCCCc1ccco1 -34.9%
COC(=O)C[C@H]1c2cc(C(F)(F)F)ccc2S(=O)(=O)N1C1CCCCC1 -24.4%
COCC1CCCN(c2nc(CN3CCN(C(=O)c4ccco4)CC3)nc3ccccc23)C1 (stereo not drawn) 3.25%
CCOC(=O)c1ccc(-c2c(-c3ccc4c(c3)OCO4)noc2-c2ccsc2)cc1F -18.9%
CN[C@@H]1[C@@H](O)[C@@H](O[C@@H]2[C@@H](O)[C@H](O[C@H]3O[C@H](CN)[C@@H](O)[C@H](O)[C@H]3O)[C@@H](N)C[C@H]2NC(=O)C(O)CN)OC[C@]1(C)O (stereo partly drawn) -10.9%
F[Si-2](F)(F)(F)(F)F -6.73%
COc1ccccc1CN1CCOc2ccc(C(C)(O)CN(C)C)cc2C1 (stereo not drawn) -8.59%
O=c1cnc2cncnc2n1Cc1ccccc1 -8.65%
O=C(CCCCCCCCC#CI)Oc1ccccc1 3.41%
COc1cc(=O)n2c(c1C(=O)N(C)Cc1nonc1C)CCN(Cc1ccccc1Cl)CC2 -11.5%
COc1ccc(C(=O)N2CCC3(CC2)CN(Cc2ccc(C#N)cc2)C3)cc1 -2.47%
C[C@@H]1CCC(=O)N(C[C@@H](C)CSc2ccc(Br)cc2)CC1 -23.5%
O=C(CCc1ccc(O)cc1)c1c(O)cc(O)cc1O[C@@H]1O[C@H](CO)[C@@H](O)[C@H](O)[C@H]1O -5.98%
CCC1C(=O)NCCN1Cc1ccc2c(c1)CN(Cc1cccn1-c1ccc(Cl)cn1)CCO2 (stereo not drawn) -23.1%
CCNc1ncc2nc(-c3ccc(F)cc3)c(=O)n(-c3ccc(OC)cc3)c2n1 -7.29%
OC(CN1CCCC1)c1ccccc1 (stereo not drawn) -26.6%
O=S1(=O)CCOC[C@H](c2ccccc2)N1Cc1cccc(Cl)c1 -15.2%
CC1(C)CCC(=O)N2CC[C@H]3C[C@H](OC(=O)Nc4ccccc4)C[C@@H]1[C@H]32 -8.41%
